Laboratory results from the CheMixHub viscosity set.
This continues a long series; more values of the same kind are listed elsewhere.

Experiment: xn = mol fraction of the nth substance listed
Conditions: 101 kPa

OCCCCO + CS(C)=O
318.15 K
Conditions	viscosity [mPa·s]
x1 = 0.2709	2.87
x1 = 0.3183	3.26
x1 = 0.3663	3.71
x1 = 0.415	4.28
x1 = 0.4644	4.95
x1 = 0.5145	5.74
x1 = 0.5653	6.7
x1 = 0.6169	7.9
x1 = 0.6692	9.3
x1 = 0.7223	11.1
x1 = 0.7762	13.3
x1 = 0.8309	16.2
x1 = 0.8864	19.6
x1 = 0.9428	24.4

OCCCCO + O
viscosity [mPa·s]
Conditions	293.15 K	298.15 K	303.15 K	308.15 K	313.15 K	318.15 K	323.15 K
x1 = 0.005	1.126	0.97	0.86	0.779	0.72	0.643	0.586
x1 = 0.01	1.272	1.075	0.96	0.863	0.77	0.7	0.626
x1 = 0.015	1.46	1.193	1.067	0.942	0.853	0.758	0.674
x1 = 0.02	1.616	1.314	1.191	1.068	0.958	0.845	0.737
x1 = 0.1	–	–	–	–	2.209	1.935	–
x1 = 0.2001	–	–	–	–	5.727	4.896	–
x1 = 0.3007	–	–	–	–	7.839	6.635	–
x1 = 0.4006	–	–	–	–	11.6	9.664	–
x1 = 0.4977	–	–	–	–	15.78	13.09	–
x1 = 0.6002	–	–	–	–	20.77	17.21	–
x1 = 0.6982	–	–	–	–	24.88	20.49	–
x1 = 0.7993	–	–	–	–	29.63	24.24	–
x1 = 0.8969	–	–	–	40.8	33.39	27.06	–

CC(C)C(=O)O + O
viscosity [mPa·s]
Conditions	301.15 K	311.15 K	313.15 K	315.15 K
x1 = 0.0106	0.9656	–	0.7325	0.7031
x1 = 0.0222	1.095	–	0.8254	0.7882
x1 = 0.0348	1.241	0.9774	0.9348	0.885
x1 = 0.0486	1.423	1.111	1.061	1.006
x1 = 0.0545	1.512	1.17	1.115	1.061
x1 = 0.0638	1.651	1.262	1.2	1.154
x1 = 0.0737	1.795	1.357	1.289	1.234
x1 = 0.0806	1.896	1.422	1.349	1.286
x1 = 0.0915	2.068	1.519	1.438	1.361
x1 = 0.1114	2.326	1.675	1.584	1.494
x1 = 0.12	2.415	1.727	1.634	1.546
x1 = 0.129	2.461	1.773	1.68	1.591
x1 = 0.1433	2.516	1.832	1.74	1.652
x1 = 0.1698	2.573	1.912	1.811	1.723
x1 = 0.1999	2.623	1.974	1.872	1.771
x1 = 0.2347	2.672	2.022	1.92	1.819
x1 = 0.323	2.694	2.071	1.973	1.872
x1 = 0.4499	2.558	2.008	1.919	1.831
x1 = 0.4996	2.472	1.951	1.866	1.791
x1 = 0.6404	2.132	1.726	1.658	1.596
x1 = 0.7953	1.717	1.427	1.377	1.317
x1 = 0.9529	1.293	1.107	1.077	1.035
